Data reported in PubChem BioAssay AID662 (National Center for Advancing Translational Sciences (NCATS), 2007).
Hit rate of the full screen: of about 71,000 compounds, about 1,800 (2.5%) were called active. Inconclusive results, whose numbers are uncertain, are shown with a selection of clear calls. Calls follow the shape of the dose curve; as a rule, active = well fitted activation curve with a large enough effect in the signal ratio, with a control signal flat (not every such curve was filed as active); inconclusive = small, poorly fitted or top-dose-only effect, or effect the other way, or a change in a side signal; inactive = flat fitted curve, though single readings scatter; the % refers to the signal ratio. A potency beside an inconclusive call is a rough fit, not a confirmed value.

assay: Cell signaling CRE-BLA (Fsk stim); settings: CHO CRE-bla reporter (cAMP response element driving beta-lactamase), forskolin EC10, beta-lactamase ratio; activity change, negative = inhibition: at 38.2 µM (top of the series) unless noted; as to activity change, negative = inhibition: % of control where 0% means no effect
Summary of the method: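 Forskolin analogue NKH 477 at EC10 stimulated CRE-driven beta-lactamase in CHO cells alongside compound dilution series. Beta-lactamase was measured with CCF4, excitation 405 nm, emission ratio 460/530 nm.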
Potency is read from the fitted curve at half-maximal effect; tags tell the direction and shape of the fitted curve.

Compound	activity change, negative = inhibition	Potency
O=C(CSc1nnc(-c2cccnc2)n1Cc1ccco1)Nc1nc(-c2ccc(F)cc2)cs1	inactive: 3.79%	–
O=C(c1ccccc1)c1ccc(Oc2ncccn2)cc1	inconclusive: -16%	–
CCn1cc(C(=O)OCc2ccccc2)c(=O)c2ccc(C)nc21	–	active: 12.6 µM
CN(C)/C=N/c1c(C#N)cnn1-c1ccccc1	inactive: 20.6%	–
O=C(OCCN1C(=O)c2ccccc2C1=O)c1cc(S(=O)(=O)N2CCOCC2)ccc1Cl	–	inconclusive: 12.6 µM [rising, partial curve]
O=C1CC(c2ccccc2)CC(O)=C1C=NCCCO (configuration not stated)	inactive: -1.25%	–
C=CCNC(=O)c1ccccc1NS(=O)(=O)c1ccccc1	inconclusive: 10.8%	–
COn1c(-n2nc(C)cc2C)nc2ccccc2c1=O	–	inconclusive: 5.01 µM [rising, single point]
CCc1cc2c(NCCC(=O)O)nc(C)nc2s1	inactive: 12.7%	–
COc1cccc(Cn2c(=O)c(-c3cccc(C#N)c3)nc3cnc(N4CCN(C)CC4)nc32)c1	–	inconclusive: 2.51 µM [rising, full curve]
COc1ccc2c(c1OC)C(=O)N(c1ccccn1)C2	–	active: 10 µM
Cn1cccc1Cc1nnc(SCC(=O)Nc2ccc(Cl)cc2)n1-c1ccc(F)cc1	inconclusive: -24.2%	–
Cc1nnc(SCCn2c(Br)nc3c2c(=O)[nH]c(=O)n3C)s1	inconclusive: 4.26%	–
CC(NC(=O)c1cc(-c2cccs2)on1)c1ccccc1 (configuration not stated)	inconclusive: 28.4%	–
COc1cccc(N2CCN(C(=O)C3C4C=CC5(CN(Cc6ccccc6Cl)C(=O)C35)O4)CC2)c1 (configuration not stated)	inconclusive: -8.37%	–
COc1ccc(-c2ccc(-c3noc(C4CCCCC4)n3)c(OC)n2)cc1	–	inconclusive: 10 µM [rising, partial curve]
COc1cc(CNc2ccccc2SC)ccc1O	inconclusive: -9.33% [at 7.6 µM]	–
Fc1cccc(Cl)c1/C=N\N=C1c2ccccc2-c2ccccc21	inactive: -10.6% [at 7.6 µM]	–
COc1cccc(N2CCN(C(=O)c3[nH]c(C)c(C(C)=O)c3C)CC2)c1	inconclusive: 1.41%	–
Cn1cccc1Cc1nnc(SCC(=O)N2CCc3ccccc32)n1CCc1ccccc1	inactive: -2.92%	–
O=C1C(c2ccncc2)=C(O)c2ccccc21	–	inconclusive: 6.31 µM [rising, partial curve]

Compound	activity change, negative = inhibition	Potency
COC(=O)COc1ccc(S(=O)(=O)NCc2ccncc2)cc1	inactive: 5.88%	–
O=C(NC1=NCCS1)c1cc2ccccc2o1	inconclusive: 15.7% [at 7.6 µM]	–
COc1cc(CN2CCC(C(=O)N3CCC(C)CC3)CC2)cc(Br)c1O	inconclusive: 10.2%	–
O=c1c(-c2ccccc2)nc2cnc(N3CCOCC3)nc2n1Cc1cccs1	–	inconclusive: 2.51 µM [rising, full curve]
CN(C)/C=N/c1sccc1C(N)=O	inconclusive: -1.47%	–
O=C(CCCCCn1c(=O)[nH]c2ccccc2c1=O)NCCCN1CCN(c2ccccc2F)CC1	inactive: -4.87%	–
C[C@@H]1NCC[C@H](CC(=O)O)[C@H]1CC(=O)O	inactive: -10.8% [at 7.6 µM]	–
CCOC(=O)c1cc(-c2ccccc2)n(CC(=O)N2CCCC2)c1C	–	inconclusive: 25.1 µM [rising, single point]
Cc1c(Nc2ncccc2C(=O)O)cccc1C(F)(F)F	inactive: 2.46% [at 17.1 µM]	–
Cn1c(=O)c2cc(NC(=O)c3ccccc3Cl)c(=O)oc2n(C)c1=O	inactive: -8%	–
O=C(CSc1nnnn1-c1ccccc1Cl)Nc1ccc2c(c1)OCCO2	inconclusive: -25.8%	–
CCOCC(O)CS(=O)Cc1ccccc1 (configuration not stated)	–	inconclusive: 0.00398 µM [falling, full curve, poor fit]
Fc1ccc(-c2cc(C(F)(F)F)nc(NCC3CCCO3)n2)cc1 (configuration not stated)	inactive: 25.7%	–
O=C(CCc1nc(-c2ccccc2F)no1)NC1CCCCCC1	inactive: 26%	–
CCOc1ccc(-n2c(SCC(=O)NC(C)CC)nc3n[nH]c(C)c3c2=N)cc1 (configuration not stated)	–	inconclusive: 10 µM [rising, partial curve]
Cc1oc2c(O)c(O)ccc2c(=O)c1-c1cnn(-c2ccccc2)c1	inactive: -10.9%	–
C=CCn1c(SCC(=O)c2cccs2)nc2sc(CC)cc2c1=O	inconclusive: -15.6%	–
O=C(COc1ncnc2c(Cl)cc(Cl)cc12)N1CCCCC1	inconclusive: 24.2%	–
CCCCC(=O)NC1(C(F)(F)F)C(=O)Nc2c1c(=O)[nH]c(=O)n2Cc1ccco1 (configuration not stated)	–	inconclusive: 25.1 µM [falling, single point]
CO/N=C(\C(=O)N[C@@H]1C(=O)N2C(C(=O)O)=C(CSc3nc(=O)c(O)nn3C)CS[C@@H]12)c1csc(N)n1	inactive: 4.96%	–
Cn1c(Cn2c(=O)sc3ccccc32)nnc1SCC(=O)Nc1cccc(F)c1	inactive: 0.627%	–

Compound	activity change, negative = inhibition	Potency
COc1cccc(-n2c(SCc3c(C)noc3C)nnc2-c2cccc(S(=O)(=O)N(C)C)c2)c1	–	inconclusive: 2.51 µM [rising, partial curve, poor fit]
Nc1nc(-c2ccccc2)nn1C(=O)Cc1ccccc1	inconclusive: 42.7%	–
C1CCC(c2nn3c(-c4n[nH]c5c4CCC5)nnc3s2)CC1	–	active: 12.6 µM
CN1CC2=Cc3ccccc3OC23Oc2ccccc2C=C3C1	–	inconclusive: 12.6 µM [falling, partial curve]
O=C(c1cc(-c2ccc3c(c2)OCO3)on1)N1CCN(c2ccccc2)CC1	inconclusive: 6.85%	–
CCCS(=O)(=O)N1CCCC(C(=O)N2CCC(Cc3ccccc3)CC2)C1 (configuration not stated)	inactive: -4.7%	–
O=C1NC(c2cccs2)Nc2sc3c(c21)CCCC3 (configuration not stated)	inconclusive: 20.9%	–
COc1ccc(OC)c(C(=O)c2coc3ccc(O)cc23)c1	inconclusive: 17.6% [at 7.6 µM]	–
O=C(CSc1nc2c([nH]c3ccccc32)c(=O)n1-c1cccc(Cl)c1)N1CCOCC1	–	inconclusive: 25.1 µM [rising, single point]
Cn1c(-n2c(CCCN3C(=O)c4ccccc4C3=O)nc3ccccc3c2=O)nc2ccccc21	–	inconclusive: 7.94 µM [rising, partial curve]
CC1(C)CC(=O)C2=C(C1)N(c1cccc(O)c1)C1=C(C2)C(=O)CC(C)(C)C1	inconclusive: 19.2% [fluorescent]	–
O=C(Nc1ccc2nc3n(c(=O)c2c1)CCCCC3)c1ccccn1	–	active: 12.6 µM
COc1cccc(-c2cncnc2NCc2ccccc2OC)c1	inconclusive: 29.6%	–
c1ccc(/N=C2\N=C(Nc3ccccn3)c3ccccc32)nc1	–	inconclusive: 10 µM [rising, partial curve]
CCOC(=O)N1CCN(C(=O)c2ccc3c(=O)n4c(nc3c2)CCCCC4)CC1	inconclusive: 19.5%	–
CCN(CC)C(=O)CSc1nnc(-c2ccccc2)n1-c1ccccc1	inconclusive: 14.5%	–
CCOC(=O)c1cnc(-n2nc(C)cc2C)nc1Nc1cccc(C(=O)O)c1	inactive: -7.86%	–
COCCn1c(=O)c(-c2ccccc2)nc2cnc(Nc3cccc(OC)c3)nc21	inconclusive: 11%	–
COc1ccc2nc(NC(=O)c3ccc(Br)s3)sc2c1	inconclusive: 20.6%	–
CC(=O)c1c(C)n(-c2ccccc2)c2ccc(O)cc12	inactive: -2.63%	–
O=C(O)CSc1nnc(C2CC2)n1-c1ccccc1	inactive: -3.08%	–

Compound	activity change, negative = inhibition	Potency
COc1ccc(CCNC(=O)CN(c2ccc(OC)c(OC)c2)S(C)(=O)=O)cc1OC	inconclusive: 27.6% [at 7.6 µM]	–
COc1ccc(C)cc1NC(=O)CSc1nnc(-c2ccc(OC)c(OC)c2)n1N	–	inconclusive: 10 µM [rising, partial curve]
CCN1C(=O)c2cccc3c(S(=O)(=O)Nc4ccccn4)ccc1c23	–	inconclusive: 7.94 µM [rising, partial curve]
c1nc(NC2CCCCCC2)c2[nH]cnc2n1	inactive: -5.47%	–
CS(=O)(=O)N1CCC[C@@]2(CCN(Cc3ccccc3)C2)C1	inactive: -5.3%	–
O=C(c1ccccc1)c1nc2ccccc2[nH]c1=O	inconclusive: 2.51%	–
O=c1c(-c2ccccc2)nc2cncnc2n1-c1ccccc1	–	inconclusive: 10 µM [rising, partial curve]
COc1ccc(C)cc1NC(=O)c1nc2nc(C)cc(C)n2n1	inactive: 3.13%	–
CCOc1cc(-c2c(C#N)c(=O)[nH]c3c2c(C)nn3-c2ccc(F)cc2)ccc1O	–	inconclusive: 5.01 µM [rising, single point]
Cc1ccc(S(=O)(=O)c2cc3c(=O)n4ccccc4nc3n(CC3CCCO3)c2=N)cc1C (configuration not stated)	–	active: 2 µM
COc1cc2c(cc1OC)CN(C(=O)c1cc3ccccc3oc1=O)CC2	–	inconclusive: 10 µM [rising, single point]
CCOC(=O)CCc1c(C)n(CC)c2cc(-c3ccccc3OC)nn2c1=O	inconclusive: 9.57%	–
CCC(=NC(C)c1ccccc1)c1c(O)n(C)c(=O)n(C)c1=O (configuration not stated)	–	inconclusive: 10 µM [rising, partial curve]
O=c1c(CCc2ccccc2)nc2cnc(N3CCNCC3)nc2n1CCc1ccccc1	–	inconclusive: 12.6 µM [rising, single point]
Cc1cc(C)nc(N2CCN(c3nc(C)cc(C)n3)CC2)n1	inactive: 6.98%	–
O=C1C(Cl)=C(N2CCOCC2)C(=O)N1c1cccc(Cl)c1	–	inconclusive: 1.26 µM [rising, partial curve, poor fit]
Nc1cc(=O)[nH]n1C1CCN(c2ccccc2)CC1	inconclusive: -16% [fluorescent]	–
COc1ccc(C(=O)Nc2cccc(C(C)=O)c2)cc1OC	–	inconclusive: 12.6 µM [rising, single point]
CCOC(=O)Cc1nnc(NC(=O)c2ccccc2OCC)s1	–	active: 12.6 µM
